Some of the results follow. At the low end of the ranking the order means little.

In the assay the target is SIX1-Q177R homeodomain (UniProt Q15475). In words: universal protein binding microarray. The settings on record: Universal all-10-mer PBM (8x60K, AMADID 030236), 300 nM GST-tagged protein, Alexa Fluor 488 anti-GST; buffer, salt, pH and temperature not stated; high values mean tight binding; most listed sequences are background and not binding sites; double strand, one strand shown.
With CAAGACCG, the binding signal stood at 0.054 E-score.

ATTAGAAG: the binding signal was -0.232 E-score.

ATTGACCG: the binding signal was 0.0881 E-score.

TGCCTCCA: the binding signal is -0.214 E-score.

With AATCCGAT, the binding signal stood at 0.0226 E-score.

Regarding GTCCGCAA, the binding signal is -0.178 E-score.

With AACGGGGG, the binding signal turned out to be 0.141 E-score.

Regarding AAAAACGT, the binding signal was -0.135 E-score.

Consider CAATCCGC, for which the binding signal was -0.124 E-score.

As for ATCCTGAG, the binding signal is -0.157 E-score.

Take AACGGTGA: the binding signal came out at 0.0131 E-score.

GCTCAGAC: the binding signal was -0.0953 E-score.

Regarding GGTAGACC, the binding signal was determined as 0.00877 E-score.

On to TAAGTTCA, for which the binding signal is -0.191 E-score.

As to CAAGGCGC, the binding signal turned out to be 0.0274 E-score.

For the sequence GGCTGGTA, the binding signal was 0.0328 E-score.

With GGGTAACC, the binding signal is 0.196 E-score.

Consider CACCCCAC, for which the binding signal was 0.355 E-score.

Take GGTCAAGA: the binding signal is 0.132 E-score.

In the case of CCCTCCGG, the binding signal is 0.262 E-score.

Turning to CACCGCCC, the binding signal was 0.3 E-score.

Take CTAGATGA: the binding signal is -0.211 E-score.

In the case of CCTCTTCA, the binding signal was determined as 0.0346 E-score.

For the sequence GTCACCTA, the binding signal was 0.0879 E-score.

On to CAGACGCC, for which the binding signal was -0.0458 E-score.

Turning to ATCCTGCA, the binding signal was found to be 0.119 E-score.

For the sequence AGGGATTC, the binding signal worked out at 0.0314 E-score.

As for ACTAGTTC, the binding signal is 0.0611 E-score.

On to TCCAATAA, for which the binding signal is -0.132 E-score.

On to AGTAACTG, for which the binding signal was -0.0538 E-score.

In the case of CTATATGA, the binding signal is -0.103 E-score.

Turning to AGCGGTCA, the binding signal is -0.0596 E-score.

For the sequence CCTTGCCC, the binding signal came to 0.0837 E-score.

For the sequence ACGGGTCC, the binding signal was 0.00801 E-score.

As for CAATCTAC, the binding signal is -0.124 E-score.

For TAGCCTGA, the binding signal turned out to be 0.064 E-score.

In the case of GAAAATTA, the binding signal amounted to 0.0143 E-score.

As to AAAACGAC, the binding signal is -0.169 E-score.

On to ACATCGTA, for which the binding signal is -0.0605 E-score.

Turning to GTGCGTTA, the binding signal is -0.0945 E-score.

With AAAGTAAT, the binding signal was -0.0944 E-score.

With GAACAAAA, the binding signal is -0.191 E-score.

On to GCGGTATA, for which the binding signal is 0.0434 E-score.

As to ACCGAGAC, the binding signal worked out at 0.0346 E-score.

With GTTCTGTA, the binding signal is -0.0722 E-score.

Take CAGGGCAC: the binding signal stood at 0.0382 E-score.

As to AAGGAGAG, the binding signal was -0.0665 E-score.

For ATCATACC, the binding signal came to 0.121 E-score.

Turning to AGGCCGTA, the binding signal was 0.122 E-score.

Consider AATTGGAC, for which the binding signal was -0.0689 E-score.

For CCTAAGAC, the binding signal was found to be 0.0688 E-score.

Turning to CGGACACA, the binding signal is 0.226 E-score.

For the sequence ATTCGCCC, the binding signal is -0.182 E-score.

As to GAGATAGA, the binding signal is -0.157 E-score.

As to CGGGGACG, the binding signal came to 0.039 E-score.

Take AAAATCGA: the binding signal was -0.086 E-score.

With AGCTTGGC, the binding signal is -0.251 E-score.

In the case of CAGCCGCC, the binding signal was -0.0735 E-score.

As for CACCTCCC, the binding signal was determined as 0.256 E-score.

Consider ATTGTACG, for which the binding signal was -0.195 E-score.

For the sequence GGGAATAA, the binding signal is -0.0428 E-score.

Turning to AAACAGTG, the binding signal is 0.0515 E-score.

On to AGACTCAG, for which the binding signal was -0.264 E-score.

Take AACAGATG: the binding signal was -0.28 E-score.

CGGGTGAA: the binding signal worked out at 0.11 E-score.

Consider ATCAGTGA, for which the binding signal was -0.0593 E-score.

Consider ATAATTAT, for which the binding signal is -0.174 E-score.

CGATAGCA: the binding signal was -0.0623 E-score.

For GAGCGAAC, the binding signal is -0.0926 E-score.

With CCAAGCGG, the binding signal came out at 0.162 E-score.

Regarding ATAATTCC, the binding signal was -0.206 E-score.

Take CAGTAGGG: the binding signal is 0.12 E-score.

For the sequence GCATTCAC, the binding signal was -0.0956 E-score.

In the case of CTTGCTCA, the binding signal is -0.149 E-score.

As to GAGAGCTA, the binding signal was -0.122 E-score.

AATTATTA: the binding signal is -0.141 E-score.

With GTACGTGA, the binding signal is -0.087 E-score.

As to AGATAATG, the binding signal is 0.00311 E-score.

Regarding AAGCATGA, the binding signal is -0.0327 E-score.

For CAAGTTCC, the binding signal was -0.213 E-score.

For the sequence TATGGCGA, the binding signal was -0.241 E-score.

As for CAGCCACC, the binding signal amounted to 0.0173 E-score.

Take ATATGGGC: the binding signal is -0.138 E-score.

For the sequence AGTAGCGG, the binding signal was -0.0364 E-score.

For ACGAAGAA, the binding signal was -0.0589 E-score.

With TAAGAAAA, the binding signal is -0.076 E-score.

As for CCCAAAGA, the binding signal is -0.139 E-score.

Take GAACCCGC: the binding signal came out at 0.135 E-score.

With CAATTCCA, the binding signal was -0.169 E-score.

Consider GATCGAGA, for which the binding signal is -0.00237 E-score.

Regarding ACGCTAGT, the binding signal came to 0.113 E-score.

Turning to ACACCGTA, the binding signal came out at 0.47 E-score.

As to GACACCGC, the binding signal is 0.487 E-score.

Take GGAAGCTA: the binding signal is -0.284 E-score.

GCACTTAA: the binding signal was -0.144 E-score.

Regarding ACCCCCGT, the binding signal was 0.273 E-score.

Take AACTCACC: the binding signal was -0.0531 E-score.

Take ATTGGTGA: the binding signal is -0.18 E-score.

ATAATCCA: the binding signal was 0.0281 E-score.

Take GGCGGAGA: the binding signal is 0.114 E-score.

Consider AGAATATA, for which the binding signal was -0.114 E-score.

For the sequence GCCAGGAA, the binding signal was -0.0578 E-score.

As for AACTTGCA, the binding signal was -0.128 E-score.

As to AAAGACAT, the binding signal was -0.387 E-score.

In the case of GCTGGGAC, the binding signal was -0.0817 E-score.

Take CTTTGGGA: the binding signal is -0.0341 E-score.

On to AAACGAAG, for which the binding signal is -0.128 E-score.

As for CATGGTTC, the binding signal was -0.0671 E-score.

Turning to GCCATCGA, the binding signal was -0.291 E-score.

Turning to TCCGTGCA, the binding signal came to 0.036 E-score.

As for CAAGGCTG, the binding signal came to 0.0315 E-score.

For CGGAACAA, the binding signal is -0.0573 E-score.

As for CCCTAAGC, the binding signal came to 0.00473 E-score.

Consider GCACATTA, for which the binding signal is 0.00653 E-score.

As for CGCGTTAG, the binding signal is 0.0144 E-score.

Turning to GTAGTCAA, the binding signal was -0.0291 E-score.

Turning to AACCGTCC, the binding signal is -0.249 E-score.

For AGAGTGTG, the binding signal came to 0.247 E-score.

For the sequence CGTTTGAG, the binding signal was found to be 0.0821 E-score.

Turning to CATGTATC, the binding signal is -0.0369 E-score.

ACGAGTTG: the binding signal was -0.0143 E-score.

Regarding CGAATGGC, the binding signal was -0.26 E-score.

For ACTGGCGG, the binding signal is -0.129 E-score.

Consider ACTCTATC, for which the binding signal came out at 0.136 E-score.

For AGCCATCA, the binding signal is -0.279 E-score.

For AGGTCTTC, the binding signal was -0.0224 E-score.

On to ACGCCTAC, for which the binding signal was -0.0379 E-score.

Regarding CGTTGCAG, the binding signal is -0.0723 E-score.

In the case of AGGCCTGC, the binding signal is -0.245 E-score.

Take TCCACACA: the binding signal was -0.0792 E-score.

On to ATACGCAG, for which the binding signal was -0.0631 E-score.

As to AGGCAGTC, the binding signal is -0.281 E-score.

Consider GATATGAA, for which the binding signal was -0.111 E-score.

As for TCTCGAAA, the binding signal is -0.129 E-score.

With GATTCTCA, the binding signal is -0.265 E-score.

As for CTGGGCGC, the binding signal is -0.185 E-score.

Turning to AGGAGAAT, the binding signal is -0.117 E-score.

Take AAAGCAGG: the binding signal was -0.0306 E-score.

For the sequence CGACGATA, the binding signal was -0.0801 E-score.

As for AGCCCCTG, the binding signal is -0.0585 E-score.

On to TAGACGGA, for which the binding signal is -0.157 E-score.

For CTTAAAAA, the binding signal was -0.284 E-score.

As to CGAGCTCC, the binding signal is -0.118 E-score.

Turning to ACCAACCC, the binding signal is 0.167 E-score.

Consider TGGCGACA, for which the binding signal came to 0.0688 E-score.

As to ATCGCAAC, the binding signal came to 0.0326 E-score.

Take CTATGGAG: the binding signal was -0.149 E-score.

As for GATCCGCA, the binding signal is 0.14 E-score.

In the case of GATCAGGA, the binding signal was -0.074 E-score.

With AACAAACC, the binding signal was -0.0429 E-score.

Consider CGGGCATC, for which the binding signal was -0.00407 E-score.

Take ATGCTCGG: the binding signal is -0.213 E-score.

As to GGTCGACA, the binding signal came to 0.172 E-score.

Turning to CCCAACAC, the binding signal was 0.403 E-score.

Regarding GAAAAGTC, the binding signal was -0.128 E-score.

Regarding CCACCTCC, the binding signal stood at 0.159 E-score.

In the case of AGTATACT, the binding signal was -0.0238 E-score.

CGATCACC: the binding signal was -0.0447 E-score.

On to CCTTGGAA, for which the binding signal was -0.03 E-score.

As to TGAAAACA, the binding signal is 0.109 E-score.

For the sequence CCACCGAC, the binding signal was 0.0604 E-score.

For CAACCCGC, the binding signal was found to be 0.0332 E-score.

Turning to CTGACCTA, the binding signal was -0.0423 E-score.

AGGAGCTC: the binding signal is -0.177 E-score.

On to ATACGGAG, for which the binding signal is -0.0606 E-score.

For ATCTATAC, the binding signal amounted to 0.0276 E-score.

On to CTAAAATA, for which the binding signal is -0.0953 E-score.

CTGCCAAG: the binding signal is -0.193 E-score.

Consider GGACGAAC, for which the binding signal was -0.0404 E-score.

Consider CAGACGGC, for which the binding signal is -0.0978 E-score.

Take GAGAAAGC: the binding signal is -0.123 E-score.

Turning to ATTAAATG, the binding signal is -0.12 E-score.

Consider CTCGCGCC, for which the binding signal is -0.0556 E-score.

GACCACCC: the binding signal was 0.0643 E-score.
